Hit rate of the full screen: of about 310,000 compounds, about 2,200 (0.71%) showed an effect of 50% or more. The effect is printed as a negative number. Some of the results follow.
Each compound was assayed against human ether-à-go-go-related gene (hERG) potassium channel (human, UniProt Q12809) (assay: primary screen, population patch clamp on CHO cells stably expressing hERG).
Sequence of human ether-à-go-go-related gene (hERG) potassium channel (Q12809 whole entry, looked up): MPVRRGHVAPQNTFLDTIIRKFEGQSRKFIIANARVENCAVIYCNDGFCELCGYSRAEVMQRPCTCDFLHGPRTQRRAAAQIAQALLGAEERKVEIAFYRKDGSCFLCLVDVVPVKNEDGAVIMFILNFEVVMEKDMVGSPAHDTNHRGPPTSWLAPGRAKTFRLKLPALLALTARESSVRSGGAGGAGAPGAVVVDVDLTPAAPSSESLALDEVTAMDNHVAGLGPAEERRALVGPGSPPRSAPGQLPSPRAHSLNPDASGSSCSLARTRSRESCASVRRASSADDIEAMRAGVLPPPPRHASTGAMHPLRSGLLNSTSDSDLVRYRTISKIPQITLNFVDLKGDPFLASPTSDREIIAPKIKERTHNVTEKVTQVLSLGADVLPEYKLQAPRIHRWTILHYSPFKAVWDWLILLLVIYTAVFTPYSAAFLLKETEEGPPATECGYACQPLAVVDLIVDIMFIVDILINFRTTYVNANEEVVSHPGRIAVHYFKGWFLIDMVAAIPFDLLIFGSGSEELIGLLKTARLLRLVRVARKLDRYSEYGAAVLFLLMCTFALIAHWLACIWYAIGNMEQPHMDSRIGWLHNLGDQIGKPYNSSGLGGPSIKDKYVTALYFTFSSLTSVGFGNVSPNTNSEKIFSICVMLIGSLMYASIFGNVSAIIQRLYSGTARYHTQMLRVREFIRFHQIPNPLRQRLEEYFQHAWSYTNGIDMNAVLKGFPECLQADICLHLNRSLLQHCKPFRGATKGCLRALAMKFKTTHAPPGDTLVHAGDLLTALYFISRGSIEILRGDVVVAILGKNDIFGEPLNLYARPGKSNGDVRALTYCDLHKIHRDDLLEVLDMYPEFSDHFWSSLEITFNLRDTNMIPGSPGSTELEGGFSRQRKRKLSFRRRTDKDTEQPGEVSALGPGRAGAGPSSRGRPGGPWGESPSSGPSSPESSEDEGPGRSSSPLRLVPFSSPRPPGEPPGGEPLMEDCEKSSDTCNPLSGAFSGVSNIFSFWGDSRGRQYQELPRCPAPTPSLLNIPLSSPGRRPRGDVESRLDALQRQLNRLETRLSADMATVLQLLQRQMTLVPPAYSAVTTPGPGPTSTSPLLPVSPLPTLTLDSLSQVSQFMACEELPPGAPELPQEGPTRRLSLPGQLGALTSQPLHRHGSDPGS

Structure (SMILES) | hERG current change (%, negative = inhibition) at 1uM
Br.Cc1nc2ccc(NC3=NCCCCC3)cc2s1 | 11.5%
COc1ccccc1CNC(=O)CCn1c(=O)sc2ccccc21 | 1.53%
COc1ccc(C2/C(=C(/O)c3ccc4c(c3)CC(C)O4)C(=O)C(=O)N2CCCN2CCOCC2)cc1 (centres unmarked) | 11.8%
CC1(C)NC(=O)N(CCOc2cccc(Oc3ccccc3)c2)C1=O | -1.05%
O=c1c2c(nc3nc(NCc4ccc(Cl)cc4)[nH]n13)CCC2 | 9.51%
CN(CCOc1ccccc1)C(=O)c1cc(S(=O)(=O)N2CCCCC2)ccc1Cl | -7.59%
Cc1occc1C(=O)Nc1cc(C(F)(F)F)ccc1Cl | 8.09%
C=CCn1cc(C(=O)OCC)c(=O)c2ccc(F)cc21 | 10.8%
CCn1cc(C(=O)NC2CCCCCC2)c(=O)c2cc(S(=O)(=O)N3CCCCC3)ccc21 | 12.5%
CC(C)CC(NS(=O)(=O)c1cc(C(=O)O)ccc1Cl)C(=O)O (centres unmarked) | 9.73%
COc1ccccc1C(=O)NC(=O)COC(=O)c1ccc([N+](=O)[O-])cc1 | 8.68%
COc1cc(/C=C(\NC(C)=O)C(=O)Nc2cccc(O)c2)ccc1OC(C)=O | 10.6%
CSc1ccc(/C=N/NC(=O)CNc2ccc3ccccc3c2)cc1 | 11.3%
O=C(NNC1=Nc2cc([N+](=O)[O-])ccc2OC1)c1ccccc1Cl | 7.39%
Cc1cc(C)cc(C(=O)NCC(=O)OCC(=O)N(C)C2CCS(=O)(=O)C2)c1 (centres unmarked) | 2.9%
O=C(N/N=C\C=C\c1ccc(Br)cc1)c1ccc2c(c1)OCO2 | 10.7%
Cc1ccc(S(=O)(=O)Oc2ccc3ccc(O)cc3c2)cc1 | 11.9%
CCCCN(C)CCCNC(=O)c1cc(-c2cccs2)nc2ccccc12 | -80.8%
CCOC(=O)C1CCN(C(=O)Cc2c(C(=O)O)n(CC)c3ccccc23)CC1 | 12.2%
COc1ccc(C(=O)NC2CCSc3ccccc32)cc1F (centres unmarked) | 15.1%
N#CC1(c2ccccc2)CCCN1C(=O)c1ccccc1Br (centres unmarked) | 16%
COC(=O)[C@H](CCSC)NC(=O)Nc1cccc(Br)c1 | 12.4%

Structure (SMILES) | hERG current change (%, negative = inhibition) at 1uM
Cc1c(C(=O)OCc2nc3scc(-c4ccccc4)c3c(=O)[nH]2)cccc1[N+](=O)[O-] | 11.3%
Cc1cccnc1NC1(C(F)(F)F)N=C2SCCN2C1=O (centres unmarked) | 11.8%
COc1ccc(NC(=O)CSc2c(C)nn(-c3nnc(C)c(=O)[nH]3)c2C)cc1 | 11.2%
CC(C(=O)N1CCN(c2ccccc2)CC1)c1ccc([N+](=O)[O-])cc1 (centres unmarked) | -12.2%
COc1ccccc1C(=O)N/C(N)=N/c1nc2ccccc2o1 | 12.8%
CC(C)N(Cc1ccccc1)C(=O)CN1C(=O)NC(Cc2ccccc2)(c2ccccc2)C1=O (centres unmarked) | 9.38%
CN(C)/C=C/c1onc(-c2c(F)cccc2Cl)c1C#N | -5.02%
CCOC(=O)C1(Cc2ccccc2)CCN(CC2CC=CCC2)CC1 (centres unmarked) | -5.83%
CNC(=S)NN(C)c1nc(C)cc(C)n1 | 8.4%
C#C[C@]1(O)CCC2C3CCC4=Cc5oncc5CC4(C)C3CCC21C (some centres unmarked) | -1.18%
C=CCN1C(=O)C(=O)N(Cc2nc3ccccc3s2)C1=O | 8.47%
O=C(Nc1ccc(F)c(Cl)c1)C1CCCCC1 | -13%
O=C(Cc1ccc(-n2c(=O)c3ccccc3n(Cc3cccc([N+](=O)[O-])c3)c2=O)cc1)NCC1CCCO1 (centres unmarked) | 14%
CN(Cc1ccccc1)C(=O)c1cccc(N2C(=O)C3CC=CCC3C2=O)c1 (centres unmarked) | 21.4%
O=S(=O)(Nc1cccc(-c2cn3c(n2)SCC3)c1)c1ccccc1 | 19.9%
CN(Cc1nc(-c2cccc(Cl)c2)no1)C1CCOCC1 | -7.93%
C[C@H](NC(N)=O)C(=O)Nc1ccc(N2CCOCC2)c(S(=O)(=O)Nc2ccc(Cl)cc2)c1 | 9.81%
COC(=O)c1c[nH]n2c(=O)cc(CCl)nc12 | 6.15%
O=C(CSc1nnnn1-c1ccccc1)NC(=O)NCc1ccco1 | 9.57%
COc1ccc(C/C(C)=N/NC(=S)Nc2ccc(C(C)C)cc2)cc1 | 17.4%
c1ccc(-n2nnnc2-c2cccnc2)cc1 | 9.6%
Cc1cc(C)nc(N/C(=N/S(=O)(=O)Cc2ccccc2)Nc2ccccc2)n1 | 10.7%

From publication PMC4336329 (PLoS ONE, 2015)
